According to a collection of fitness landscapes (doi:10.1016/j.celrep.2020.107928):
In all, about 81,000 sequences were measured (“one-hybrid fitness for binding parS DNA”: median about -0.17, highest 2% from about 0.51 on). This is one part of the list.

B1: Caulobacter ParB omega fusion; a variant is named by its letters at X, in order, B8GW30 (parent)
chain: MESVVVGEPGMSEGRRGLGRGLSALLGEVDAAPAQAPGEQLGGSREAPIEILQRNPDQPRRTFREEDLEDLSNSIREKGVLQPILVRPSPDTAGEYQIVAGERAWRAAQRAGLKTVPIMVRELDDLAVLEIGIIENVQRADLNVLEEALSYKVLMEKFERTQENIAQTIGKSXSHVANXMRLLXLPDEVQSYLVSGELTAXHARAIAAAADPVALAKQIIEGGLSVRETEALARKAPNLSAGKSKGGRPPRVKDTDTQALESDLSSVLGLDVSIDHRGSTGTLTITYATLEQLDDLCNRLTRGI

Variants of: B1
Assay: one-hybrid fitness for binding parS DNA (scaled: cognate 1, non-cognate 0); higher = stronger binding
Conditions: with parS DNA site
Summary of the method: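 Pre- and post-selection plasmids were Illumina-sequenced, three replicate libraries were pooled, and any variant with under 10 reads was removed. The libraries were Caulobacter ParB with four specificity codons randomised, selected in E. coli USO through a HIS3 reporter whose site is 19 bp from the promoter. Cells grew 48 hours at 37°C on M9 without histidine, with 0.1 mM IPTG and 5 mM 3-AT. Fitness is the log change in variant-to-wild-type read ratio, rescaled against cognate and non-cognate.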

Variant	one-hybrid fitness for binding parS DNA
QEAR	≤ 0.2
WHSN	≤ 0.2
RVHN	0.425
GGMM	≤ 0.2
RYRA	0.727
QVMN	≤ 0.2
ATTK	≤ 0.2
VEWC	≤ 0.2
WIMN	≤ 0.2
ATAT	≤ 0.2
TFPG	≤ 0.2
GSHI	≤ 0.2
SDCS	≤ 0.2
NHTM	≤ 0.2
PLIA	≤ 0.2
PNFC	≤ 0.2
SPNE	≤ 0.2
TSAG	≤ 0.2
HMNR	≤ 0.2
KDMC	≤ 0.2
KEPS	≤ 0.2
LEAL	≤ 0.2
CDAG	≤ 0.2
NHTI	≤ 0.2
YCYV	≤ 0.2

Variant	one-hybrid fitness for binding parS DNA
RQWY	0.418
TCER	≤ 0.2
RTQP	≤ 0.2
CGQG	≤ 0.2
LPPI	≤ 0.2
TSFN	≤ 0.2
WRPT	≤ 0.2
YKTL	≤ 0.2
RMSY	0.487
VFHS	≤ 0.2
GWVS	≤ 0.2
LMSV	≤ 0.2
HWNT	≤ 0.2
PVYS	≤ 0.2
LVAV	≤ 0.2
QMSH	≤ 0.2
SNHH	≤ 0.2
GIQC	≤ 0.2
NHNP	≤ 0.2
EAKL	≤ 0.2
EEYS	0.252
VSQD	≤ 0.2
KRPN	≤ 0.2
GLAR	≤ 0.2
PIEM	≤ 0.2

Variant	one-hybrid fitness for binding parS DNA
TRDN	≤ 0.2
KKIL	≤ 0.2
HHRC	≤ 0.2
TVAG	≤ 0.2
IICG	≤ 0.2
SHYM	≤ 0.2
SKKH	≤ 0.2
NNLR	≤ 0.2
RKYM	0.267
LGIT	≤ 0.2
IYPV	≤ 0.2
FCYS	≤ 0.2
TSEY	≤ 0.2
AFDV	≤ 0.2
YHLN	≤ 0.2
RAWD	≤ 0.2
RGWW	≤ 0.2
CQPI	≤ 0.2
DMQP	≤ 0.2
FSWL	≤ 0.2
WRMN	≤ 0.2
LEWS	≤ 0.2
KLKI	≤ 0.2
HNHG	≤ 0.2
WCQS	≤ 0.2

Variant	one-hybrid fitness for binding parS DNA
ATNR	≤ 0.2
QWGI	≤ 0.2
QPTP	≤ 0.2
VCRN	≤ 0.2
KGER	≤ 0.2
SRLD	≤ 0.2
NWHS	≤ 0.2
WTGE	≤ 0.2
RCFD	≤ 0.2
LENE	≤ 0.2
RDRF	≤ 0.2
DGAR	≤ 0.2
RCAS	1.01
AVRR	≤ 0.2
GHNR	≤ 0.2
PIVW	≤ 0.2
KDPP	≤ 0.2
DIEW	≤ 0.2
PCTV	≤ 0.2
TYRD	≤ 0.2
SLYC	≤ 0.2
GHEF	≤ 0.2
QIMG	≤ 0.2
SLLW	≤ 0.2
ILAV	≤ 0.2

Variant	one-hybrid fitness for binding parS DNA
VFVC	≤ 0.2
TTVV	≤ 0.2
LIQR	≤ 0.2
NILC	≤ 0.2
LDHW	≤ 0.2
RASD	≤ 0.2
STNT	≤ 0.2
HIPD	≤ 0.2
AMRC	≤ 0.2
RNKH	0.219
CERS	≤ 0.2
EMKC	≤ 0.2
RVDF	≤ 0.2
HSSQ	≤ 0.2
QSFG	≤ 0.2
GWPS	≤ 0.2
RELE	≤ 0.2
DTFA	≤ 0.2
FWAG	≤ 0.2
FAHG	≤ 0.2
RSDA	0.515
DHIC	≤ 0.2
RAEN	0.337
QSNP	≤ 0.2
LQDG	≤ 0.2

Variant	one-hybrid fitness for binding parS DNA
CAPG	≤ 0.2
LCDI	≤ 0.2
GSRF	≤ 0.2
TCPF	≤ 0.2
GLAV	≤ 0.2
CRQR	≤ 0.2
YQAL	≤ 0.2
PMRY	≤ 0.2
SRCN	≤ 0.2
HMCA	≤ 0.2
PTNS	≤ 0.2
MTLL	≤ 0.2
DICV	≤ 0.2
NCIC	≤ 0.2
SMNN	≤ 0.2
LTTQ	≤ 0.2
TRTI	≤ 0.2
KGDM	≤ 0.2
TRDA	≤ 0.2
RVKQ	≤ 0.2
APVH	≤ 0.2
QLYT	≤ 0.2
RNSY	0.399
PNRL	≤ 0.2
KTWS	≤ 0.2

Variant	one-hybrid fitness for binding parS DNA
HGPC	≤ 0.2
AYMF	≤ 0.2
VENS	≤ 0.2
HNPW	≤ 0.2
PLMF	≤ 0.2
PPDY	≤ 0.2
MIPT	≤ 0.2
QHGD	≤ 0.2
HQSF	≤ 0.2
CSCT	≤ 0.2
AFSH	≤ 0.2
RIDD	≤ 0.2
KLCM	≤ 0.2
TTSY	≤ 0.2
HELS	≤ 0.2
PRKI	≤ 0.2
TATG	≤ 0.2
GLDA	≤ 0.2
VERV	≤ 0.2
RCIM	0.369
FFLS	≤ 0.2
ALTT	≤ 0.2
LGSV	≤ 0.2
LMTC	≤ 0.2
EYWR	≤ 0.2

Variant	one-hybrid fitness for binding parS DNA
PCHC	≤ 0.2
YKSS	≤ 0.2
DYIK	≤ 0.2
LNGC	≤ 0.2
GGGL	≤ 0.2
MLFS	≤ 0.2
WKCG	≤ 0.2
LKYE	≤ 0.2
VSGT	≤ 0.2
DAKR	≤ 0.2
DTVV	≤ 0.2
RPIW	≤ 0.2
AHGR	≤ 0.2
IKCG	≤ 0.2
DSGV	≤ 0.2
CAAC	≤ 0.2
DLKY	≤ 0.2
EPKW	≤ 0.2
HFSY	≤ 0.2
IIYR	≤ 0.2
